According to patent US20240376204A1 (JIANGSU HENGRUI PHARMACEUTICALS, published 2024):
Like-named read-outs stand apart in the source and are kept apart here.

Legend:
[1] = molecular target: T1, human PD-1 expressed on cells (human, UniProt Q15116 25-288); test: cell-based or functional assay
[2] = molecular target: T1, human PD-1 expressed on cells; test: FACS, Jurkat cells overexpressing human PD-1
[3] = molecular target: T2, Human PD-1 protein (His Tag) (human, UniProt Q15116 in part); test: ELISA, plate coated with human PD-1 (his tag)
T2 construct: also called human PD-1 (his tag); His-tagged human PD-1; not shown: His tag
Experimental: The plate was coated with the antigen overnight at 4° C. […] PBST/1% BSA solution was added, and the plate was incubated at 37° C. for 1 h for blocking. […] The plate was washed with PBST solution three times. […] After three washes with PBST solution, TMB solution was added at 100 μL/well. After 5 min of reaction at room temperature, 50 μL of stop solution was added.

[4] = molecular target: T1, human PD-1 expressed on cells; test: cell-based or functional assay; remark: listed apart in the source
[5] = molecular target: T1, human PD-1 expressed on cells; test: cell-based or functional assay; remark: listed apart in the source
[6] = molecular target: T1, human PD-1 expressed on cells; test: cell-based or functional assay; remark: listed apart in the source
[7] = molecular target: T3, human PD-1 antigen protein (Sino Biological, 10377-H08H) (human, UniProt Q15116 in part); test: SPR (Biacore 8K), antibody captured by anti-human Fc, PD-1 as analyte
T3 construct: Bought construct

[8] = molecular target: T4, cynomolgus monkey PD-1 antigen protein (Sino Biological, 90311-C08H) (cynomolgus monkey, UniProt B0LAJ3 25-170); test: as above
T4 construct: not shown: The tag of the vendor's product (Sino Biological 90311-C08H, probably a C-terminal poly-His)
T4 sequence (B0LAJ3 entry or part of it C08H C08H limits assumed): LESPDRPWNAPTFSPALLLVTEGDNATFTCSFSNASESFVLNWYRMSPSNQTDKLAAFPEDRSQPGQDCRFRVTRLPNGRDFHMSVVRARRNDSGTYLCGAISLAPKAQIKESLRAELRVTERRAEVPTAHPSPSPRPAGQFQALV

[9] = molecular target: T5, human PVRIG expressed on cells (human, UniProt Q6DKI7 41-326); test: cell-based or functional assay
T5 sequence (looked up): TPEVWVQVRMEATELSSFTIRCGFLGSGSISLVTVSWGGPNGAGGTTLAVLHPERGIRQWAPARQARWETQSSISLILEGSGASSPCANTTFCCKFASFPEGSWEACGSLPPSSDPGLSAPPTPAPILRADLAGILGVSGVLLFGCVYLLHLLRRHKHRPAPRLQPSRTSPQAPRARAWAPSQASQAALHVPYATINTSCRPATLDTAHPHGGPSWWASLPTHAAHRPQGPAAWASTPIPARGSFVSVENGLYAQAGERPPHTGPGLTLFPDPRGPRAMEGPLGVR

[10] = molecular target: T5, human PVRIG expressed on cells; test: cell-based or functional assay; remark: listed apart in the source

T1 sequence (Q15116 25-288 limits assumed): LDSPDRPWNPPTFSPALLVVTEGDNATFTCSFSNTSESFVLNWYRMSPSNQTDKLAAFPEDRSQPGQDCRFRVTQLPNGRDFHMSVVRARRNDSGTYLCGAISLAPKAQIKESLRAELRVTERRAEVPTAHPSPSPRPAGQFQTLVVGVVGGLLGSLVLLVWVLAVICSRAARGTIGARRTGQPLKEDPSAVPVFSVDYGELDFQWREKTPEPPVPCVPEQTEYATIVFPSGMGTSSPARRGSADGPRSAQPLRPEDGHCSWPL

Binder	IC50, PD-1/PD-L1 NFAT reporter gene system [5] [nM]	Kd [7] [nM]	koff [7] [s⁻¹]	kon [7] [M⁻¹ s⁻¹]	Kd [8] [nM]	koff [8] [s⁻¹]	kon [8] [M⁻¹ s⁻¹]	also measured
A6_hIgG4 (Fc fusion, VHH-Fc antibody, human IgG4 Fc with hinge and S228P; also called A6_IgG4) EVQLVESGGGLVQAGGSLRLSCAVSGRTFSSAAMGWFRQAPGKEREFVAAISWSFGSTYYADSVKGRFTISRDNAKNTVYLQMNSLKPEDTAVYYCAADPSIETMGGGWDYWGQGTQVTVSS[gap - human IgG4 Fc with S228P (EU numbers)]								IC50, PD-1/PD-L1 NFAT reporter gene system [1]: 1.35 nM; EC50 [2]: 1.09 nM; EC50 [3]: 0.0861 nM
A17m09_hIgG4 (Fc fusion) EVQLQESGGGLVQPGGSLRLSCTASGLTFSDYSMSWYRQAPGKGRELVAIISGSGVITHYVDSVKGRFTISRDNAKNTVYLQMRSLTPEDRAVYYCRAVSDWEDYWGQGTQVTVSS[gap - human IgG4 Fc with S228P (EU numbers)]	1.08	3.56	0.00163	458000	1.75	0.000843	481000	EC50, IFN-γ in DC:T mix lymphocyte reaction [4]: 0.293 nM; IC50, PD-1/PD-L1 NFAT reporter gene system [6]: 0.772 nM
A17h1_hIgG4 (Fc fusion, also called A17h1_IgG4) EVQLQESGGGLVQPGGSLRLSCTASGLTFSDYSMSWYRQAPGKGRELVAIISGSGVIAHYVDSVKGRFTISRDNSKNTVYLQMRSLTPEDRAVYYCRAVSDWDDYWGQGTQVTVSS[gap - human IgG4 Fc with S228P (EU numbers)]	1.04	2.02	0.000868	430000	1.82	0.000807	444000	IC50, PD-1/PD-L1 NFAT reporter gene system [6]: 0.696 nM
anti-PVRIG nanobody 30 (full length) (Fc fusion) HVQLVESGGGSVQAGGSLRLSCEASGYSYSGDCMGWFRRAPGKERDEGVATIDNAGRIKYADSVKGRFTISHGNGKYILYLQMNSLKPEDTDMYYCAAGWTFGGNCSPADWGQGTQVTVSS[gap - human IgG4 Fc with S228P F234A L235A (EU numbers)]								PVRIG reporter gene cell activity EC50 [9]: 0.06 nM; IFNγ, mixed lymphocyte reaction, 4 nM antibody [10]: 1680 pg/mL; IFNγ, mixed lymphocyte reaction, 20 nM antibody [10]: 1910 pg/mL; IFNγ, mixed lymphocyte reaction, 100 nM antibody [10]: 1580 pg/mL
anti-PVRIG nanobody 151 (full length) (Fc fusion) HVQLVESGGGSVQAGGSLRLSCVASASGFTYRPYCMAWFRQAPGKEREAVAGIDIFGGTTYADSVKGRFTASRDNAGFSLFLQMNDLKPEDTAMYYCAAGDSPDGRCPPLGQGLNYWGQGTQVTVSS[gap - human IgG4 Fc with S228P F234A L235A (EU numbers)]								PVRIG reporter gene cell activity EC50 [9]: 0.04 nM; IFNγ, mixed lymphocyte reaction, 4 nM antibody [10]: 1500 pg/mL; IFNγ, mixed lymphocyte reaction, 20 nM antibody [10]: 2220 pg/mL; IFNγ, mixed lymphocyte reaction, 100 nM antibody [10]: 1800 pg/mL
A17_hIgG4 (Fc fusion, VHH-Fc antibody, human IgG4 Fc with hinge and S228P; also called A17_IgG4) EVQVVESGGGLVQPGGSLRLSCVASGLTFSDYSMSWYRQAPGKERELVAIISGSGVIAHYVDSVKGRFTISRDNAKSTVYLQMVSLKPEDRGVYYCRAVSDWDDYWGQGTQVTVSS[gap - human IgG4 Fc with S228P (EU numbers)]								IC50, PD-1/PD-L1 NFAT reporter gene system [1]: 1.2 nM; EC50 [2]: 0.357 nM; EC50 [3]: 0.061 nM

The next lines start with results.

IC50, PD-1/PD-L1 NFAT reporter gene system [5] [nM]	Kd [7] [nM]	koff [7] [s⁻¹]	kon [7] [M⁻¹ s⁻¹]	Kd [8] [nM]	koff [8] [s⁻¹]	kon [8] [M⁻¹ s⁻¹]	Binder	also measured
0.531	6.44	0.00192	297000	3.32	0.00113	340000	A17m0901_hIgG4 (Fc fusion) EVQLVESGGGLVQPGGSLRLSCAASGFTFSDYSMSWYRQAPGKGRELVAIISGSGVITHYVDSVKGRFTISRDNAKNTLYLQMRSLRAEDTAVYYCRAVSDWEDYWGQGTQVTVSS[gap - human IgG4 Fc with S228P (EU numbers)]	
0.435	6.09	0.00177	291000	3.28	0.00108	328000	A17m0902_hIgG4 (Fc fusion) EVQLVESGGGLVQPGGSLRLSCAASGLTFSDYSMSWYRQAPGKGRELVAIISGSGVITHYVDSVKGRFTISRDNAKNTLYLQMRSLRAEDTAVYYCRAVSDWEDYWGQGTQVTVSS[gap - human IgG4 Fc with S228P (EU numbers)]	
1.28							A17m0903_hIgG4 (Fc fusion) EVQLVESGGGLVQPGGSLRLSCAASGLTFSDYSMSWYRQAPGKGRELVAIISGSGVITHYVDSVKGRFTISRDNAKNTVYLQMRSLRAEDTAVYYCRAVSDWEDYWGQGTQVTVSS[gap - human IgG4 Fc with S228P (EU numbers)]	
0.559							A17m0905_hIgG4 (Fc fusion) EVQLVESGGGLVQPGGSLRLSCAASGLTFSDYSMSWYRQAPGKGRELVAIISGSGVITHYVDSVKGRFTISRDNAKNTVYLQMRSLRAEDRAVYYCRAVSDWEDYWGQGTQVTVSS[gap - human IgG4 Fc with S228P (EU numbers)]	
